Reference: PubChem BioAssay AID588855 (National Center for Advancing Translational Sciences (NCATS), 2011)
The campaign covered roughly 410,000 compounds. About 5,000 (1.2%) were called active. The shares of active, inactive and inconclusive entries below differ from those in the screen. The call rests on the fitted dose curve; in most records, active means well fitted inhibition curve with a large enough effect; inconclusive means small, poorly fitted or top-dose-only effect; inactive means no such curve, though single readings can be large or run the other way. Where the call is inconclusive, the potency comes from a doubtful curve fit.

Experiment: qHTS for Inhibitors of TGF-b; further: nearly all actives have a fitted effect of over 65% in size
Settings: HepG2 CAGA-GFP TGF-b/SMAD3 reporter, GFP fluorescence, 18 h, TGF-beta stimulated, 500 pg/mL final; series mostly up to 46.1 µM
Outline: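 Cell-based qHTS in HEPG2 carrying a CAGA-GFP Smad reporter; compounds added before 500 pg/mL final TGF-beta, 18 h incubation at 37 degrees C, GFP fluorescence quantified per cell by imaging cytometry.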
Potency means the concentration at half of the fitted maximal effect; tags describe the fitted curve by direction and shape.

Row | Structure (SMILES) | Potency
1 | COc1ccc(C(=O)/C=C/C(=O)N(Cc2ccccc2OC)C(C(=O)NC2CCCCC2)c2ccncc2)c(O)c1 (centres undefined) | inconclusive: 35.5 µM [inhibitor, single point]
2 | CC(=O)c1cc2cccc(OC3(C)CCN(Cc4ccc5ccccc5c4)C3)c2o1 (centres undefined) | inconclusive: 17.8 µM [inhibitor, single point]
3 | N#CC1=C(N)Oc2cc3ccccc3cc2C1c1cccnc1 (centres undefined) | inconclusive: 35.5 µM [inhibitor, single point]
4 | O=C(c1ccc(S(=O)(=O)c2cccc(Cl)c2)c([N+](=O)[O-])c1)N1CCN(c2ccccn2)CC1 | active: 11.2 µM
5 | CCc1ccccc1NC(=S)NCCSc1ccc(Cl)cc1 | inconclusive: 12.6 µM [inhibitor, partial curve]
6 | CC(/C=C/c1ccc(N(C)C)cc1)=N\N=C1\NC(=O)CC(C(=O)Nc2ccccc2)S1 (centres undefined) | active: 15.8 µM
7 | O=S(=O)(c1ccccc1)c1nc(-c2cccc(Cl)c2)oc1N1CCOCC1 | inactive
8 | CCCOC(=O)c1ccc(NC(=O)C(=O)NCC2CCCO2)cc1 (centres undefined) | inconclusive: 11.2 µM [inhibitor, single point]
9 | C#CCNC(=O)C1=C[C@H](c2csc3ccccc23)C[C@H](OCc2ccc(CO)cc2)O1 | inconclusive: 1 µM [inhibitor, full curve, poor fit]
10 | CCN(CC)S(=O)(=O)c1nnc(NC(=O)c2ccc(Br)cc2)s1 | inconclusive: 6.31 µM [inhibitor, full curve]
11 | CCn1c(=O)c(C(=O)NCCc2ccc(OC)c(OC)c2)c(O)c2ccccc21 | inconclusive: 28.2 µM [inhibitor, single point]
12 | O=C(CC(=O)N/N=C/c1c(F)cccc1Cl)NCCc1ccccc1 | inconclusive: 35.5 µM [inhibitor, single point]
13 | CCCCCCCCNC(=O)/C(C#N)=C/c1ccccc1[N+](=O)[O-] | inconclusive: 0.447 µM [inhibitor, full curve, poor fit]
14 | Cc1ccccc1-c1cc(C(=O)NCc2ccc(OC(F)(F)F)cc2)n(CC2CC(c3cccnc3)=NO2)n1 (centres undefined) | inconclusive: 35.5 µM [inhibitor, partial curve, poor fit]
15 | COc1ccc(-c2nc(CSc3nnc(C)n4c3cc3oc(C)cc34)c(C)o2)cc1OC | inconclusive: 10 µM [inhibitor, partial curve]
16 | CCn1cc2nc(SCc3ccc(F)cc3)n(CCc3ccccc3)c(=O)c2n1 | inconclusive: 35.5 µM [inhibitor, single point]
17 | CCN(CCCNC(=O)c1ccc(Sc2ccc(Cl)cc2)c(NC(C)=O)c1)c1ccccc1 | inconclusive: 7.94 µM [inhibitor, partial curve]
18 | COc1ccc(/C=N/NC(=O)CCn2c3ccccc3c3ccccc32)cc1O | inconclusive: 17.8 µM [inhibitor, single point]
19 | CC1CCCC(C)N1C(=O)/C=C/c1ccc(S(=O)(=O)N2CCOCC2)cc1 (centres undefined) | inactive
20 | COCCCNC(=O)c1oc2c(c1C)-c1nn(Cc3ccccc3Cl)cc1CC2 | inactive
21 | CNC(=O)C1CCC(Cn2c(=O)c3sccc3n(CC(=O)NCc3ccccc3)c2=O)CC1 (centres undefined) | inconclusive: 8.91 µM [inhibitor, partial curve, poor fit]
22 | Cc1ccc(SCCNC(=O)CN(c2ccccc2)S(=O)(=O)N(C)C)cc1 | inconclusive: 22.4 µM [inhibitor, single point]
23 | COc1ccc2nc(SCC(=O)NC3CCCC3)c(C)cc2c1 | inconclusive: 0.631 µM [inhibitor, full curve]

Row | Structure (SMILES) | Potency
24 | CCC1=Nc2cc(C(=O)NCCCOC)ccc2Sc2ccc(Br)cc21 | inconclusive: 1 µM [inhibitor, full curve]
25 | CC1(C)C(=Cc2ccccc2)C(=O)c2ccccc21 | inconclusive: 3.55 µM [inhibitor, single point]
26 | CCCCc1ccc(NC(=S)NCCc2ccc(F)cc2)cc1 | active: 15.8 µM
27 | Cc1ccc(-c2nn(-c3ccccc3)cc2C=C2SC(=S)N(CCS(=O)(=O)O)C2=O)cc1 | inconclusive: 35.5 µM [inhibitor, single point]
28 | CCc1ccc(CN(Cc2ccco2)c2cnc(S(C)(=O)=O)nc2C(=O)Nc2cccc(C)c2)cc1 | inconclusive: 35.5 µM [inhibitor, single point]
29 | Fc1cccc(Cc2c(-c3ccco3)nc3c(Cl)cc(C(F)(F)F)cn23)c1 | inconclusive: 11.2 µM [inhibitor, partial curve, poor fit]
30 | CCOC(=O)Cc1cn2c(=O)cc(CSCC(=O)Nc3ccc(C)c(C)c3)nc2s1 | inactive
31 | O=S(=O)(c1ccc(Cl)cc1)N1CCN(Cc2ccc(O)c3ncccc23)CC1 | inconclusive: 7.08 µM [inhibitor, full curve, poor fit]
32 | Cc1cc(NC(=O)CS(=O)c2cn(Cc3cccc(Cl)c3)c3ccccc23)no1 (centres undefined) | active: 12.6 µM
33 | Cc1c(N=C2SCC(=O)N2c2c(C)n(C)n(-c3ccccc3)c2=O)c(=O)n(-c2ccccc2)n1C | inconclusive: 3.55 µM [inhibitor, partial curve, poor fit]
34 | CCCC1OC23CCCCC2C(C#N)(C#N)C1(C#N)C(=N)O3 (centres undefined) | inconclusive: 35.5 µM [inhibitor, single point]
35 | COCc1cc(CN2CCCC(C(=O)Nc3ccc(-c4ccco4)cc3)C2)ccc1OC (centres undefined) | inconclusive: 15.8 µM [inhibitor, single point]
36 | CC(C)c1ccc(/C=C/C(=O)Nc2ccc(CN3CCOCC3)cc2)cc1 | inactive
37 | O=C(c1cc2cc(Cl)ccc2[nH]1)N1CCN(C(=O)c2ccco2)CC1 | inconclusive: 35.5 µM [inhibitor, partial curve, poor fit]
38 | COCCCNC(=O)/C(C#N)=C/c1c(N2CCN(c3ccccc3)CC2)nc2ccccn2c1=O | inactive
39 | CC(C)OCCCn1c(=O)c2ccccc2n2c(-c3ccc(F)cc3)nnc12 | inactive
40 | COc1ccc(S(=O)(=O)N(CC(=O)Nc2ccccc2Br)Cc2ccccc2)cc1 | inactive
41 | C=CCN(CC(=O)c1sc(C(=O)OCC)nc1C)c1cccc(Br)c1 | inactive
42 | CCSc1nnc2c(n1)[nH]c1c(C)cccc12 | inconclusive: 17.8 µM [inhibitor, single point]
43 | Cc1ccc(-c2cc(-c3ccc(F)cc3)nc(N)c2C#N)o1 | inactive
44 | COc1ccccc1CNC(=O)CN1C(=O)NC2(CCCC2)C1=O | inactive
45 | COc1ccccc1NC(=O)CN1CCN(C2c3ccccc3-c3ccccc32)CC1 | inactive
46 | O=C(N[C@@H](Cc1ccccc1)C(=O)CCl)OCc1ccccc1 | inconclusive: 35.5 µM [inhibitor, single point]

Row | Structure (SMILES) | Potency
47 | CCOC(CNC(=O)c1cccn2c(=O)c3c(C)c(C)sc3nc12)OCC | inactive
48 | O=C(C1CCN(S(=O)(=O)c2cccc([N+](=O)[O-])c2)CC1)N1CCOCC1 | inconclusive: 0.447 µM [inhibitor, full curve, poor fit]
49 | CCN1CCN(c2ncc3c(n2)CCN(Cc2cc(F)cc(F)c2)C3)CC1 | inactive
50 | CCOC(=O)c1c(C)[nH]c(C(=O)COC(=O)[C@H](C)N2C(=O)C3CCCCC3C2=O)c1C (some centres undefined) | inactive
51 | O=C(c1ccccc1Cl)N1CCN(Cc2ccc3c(c2)OCO3)CC1 | inconclusive: 7.94 µM [inhibitor, partial curve, poor fit]
52 | O=C(c1cccc(S(=O)(=O)N2CCc3ccccc32)c1)N1CCN(c2ccccc2)CC1 | inactive
53 | O=C(OC1CCCC1)c1ccc(Cl)cc1Cl | inactive
54 | O=C(N/N=C/c1ccccn1)c1ccc(N/N=C/c2ccccn2)cc1 | inactive
55 | Cc1ccc(Cl)cc1NC(=O)c1cnc(N2CCCCC2)c2ccccc12 | inconclusive: 6.31 µM [inhibitor, single point]
56 | Clc1cccc(-c2nc3ccc(Cl)cn3c2Cc2ccsc2)c1 | active: 15.8 µM
57 | Cc1cc(Nc2ccccc2)nc(NCc2ccccc2)n1 | active: 10 µM
58 | CC(NC(=O)CCl)c1ccc(Cl)c(Cl)c1 (centres undefined) | inconclusive: 35.5 µM [inhibitor, single point]
59 | CN(C)C(CNC(=O)CCNC(=O)c1ccccc1Cl)c1ccco1 (centres undefined) | inconclusive: 35.5 µM [inhibitor, single point]
60 | O=C(NCc1ccccc1)C1=C[C@H](C2CCCCC2)C[C@H](OCCCCO)O1 | inconclusive: 6.31 µM [inhibitor, single point]
61 | CC(=O)Nc1ccc(SCC(=O)c2cc(C)n(C)c2C)cc1 | inconclusive: 3.55 µM [inhibitor, partial curve, poor fit]
62 | CC(C)(C)n1ncc2c(=O)n(Cc3c(Cl)cccc3Cl)cnc21 | inactive
63 | CCOC(=O)[C@H]1[C@H]2COc3ccccc3[C@@H]2N2C(=O)c3cc(Br)ccc3NC(=O)[C@@]12C | inconclusive: 14.1 µM [inhibitor, single point]
64 | O=C(CN1CCCCC1)NNc1nc(-c2ccccc2)c2cc(Br)ccc2n1 | inactive
65 | COc1ccc(CC(=O)NNC(=O)c2cccs2)cc1OC | inconclusive: 6.31 µM [inhibitor, single point]
66 | Cc1nc(CNS(=O)(=O)c2ccc3c(c2)OCCO3)cs1 | inconclusive: 0.631 µM [inhibitor, partial curve, poor fit]
67 | COc1ccc(NC(=O)c2sc3nc(N4CCOCC4)c4c(c3c2N)CC(C)(C)OC4)cc1 | inactive
68 | Cc1ccc(-c2nn(C)c(=O)c3ccccc23)cc1CNC(=O)c1ccco1 | inactive
69 | CCN(CC)CCn1c(NCc2ccco2)nc2ccccc21 | inactive
